For 31 molecules, binding signal results are on record in paper PMC9911399, “Two distinct binding modes provide the RNA-binding protein RbFox with extraordinary sequence specificity”.

Residue numbers refer to the chain shown, from its start. Some of the results follow.

B1: AACACUG (DNA:RNA)
RNA: GGGAGACCGGAAUUCAGAUUGUCCAACACUGUUAAAUCCCGUCGUAGCCACCA
DNA 1: CAATCTGAATTCCGGTCTCCC
DNA 2: TGGTGGCTACGACGGGATT
B2: UGCCUAC (DNA:RNA)
RNA: B1 RNA with A25U, A26G, A28C, C29U, U30A, G31C
DNA 1: CAATCTGAATTCCGGTCTCCC
DNA 2: TGGTGGCTACGACGGGATT
B3: ACAAACC (DNA:RNA)
RNA: B1 RNA with A26C, C27A, C29A, U30C, G31C
DNA 1: CAATCTGAATTCCGGTCTCCC
DNA 2: TGGTGGCTACGACGGGATT
B4: UAGAAUC (DNA:RNA)
RNA: B1 RNA with A25U, C27G, C29A, G31C
DNA 1: CAATCTGAATTCCGGTCTCCC
DNA 2: TGGTGGCTACGACGGGATT
B5: ACAAGUG (DNA:RNA)
RNA: B1 RNA with A26C, C27A, C29G
DNA 1: CAATCTGAATTCCGGTCTCCC
DNA 2: TGGTGGCTACGACGGGATT
B6: GCGCGUG (DNA:RNA)
RNA: B1 RNA with A25G, A26C, C27G, A28C, C29G
DNA 1: CAATCTGAATTCCGGTCTCCC
DNA 2: TGGTGGCTACGACGGGATT
B7: CACCUUC (DNA:RNA)
RNA: B1 RNA with A25C, A28C, C29U, G31C
DNA 1: CAATCTGAATTCCGGTCTCCC
DNA 2: TGGTGGCTACGACGGGATT
B8: GGGAUUC (DNA:RNA)
RNA: B1 RNA with A25G, A26G, C27G, C29U, G31C
DNA 1: CAATCTGAATTCCGGTCTCCC
DNA 2: TGGTGGCTACGACGGGATT
B9: ACUACGG (DNA:RNA)
RNA: B1 RNA with A26C, C27U, U30G
DNA 1: CAATCTGAATTCCGGTCTCCC
DNA 2: TGGTGGCTACGACGGGATT
B10: CGGUCCA (DNA:RNA)
RNA: B1 RNA with A25C, A26G, C27G, A28U, U30C, G31A
DNA 1: CAATCTGAATTCCGGTCTCCC
DNA 2: TGGTGGCTACGACGGGATT
B11: GGCGAAG (DNA:RNA)
RNA: B1 RNA with A25G, A26G, A28G, C29A, U30A
DNA 1: CAATCTGAATTCCGGTCTCCC
DNA 2: TGGTGGCTACGACGGGATT
B12: UACGUCU (DNA:RNA)
RNA: B1 RNA with A25U, A28G, C29U, U30C, G31U
DNA 1: CAATCTGAATTCCGGTCTCCC
DNA 2: TGGTGGCTACGACGGGATT
B13: AAAGCAC (DNA:RNA)
RNA: B1 RNA with C27A, A28G, U30A, G31C
DNA 1: CAATCTGAATTCCGGTCTCCC
DNA 2: TGGTGGCTACGACGGGATT
B14: GUACUAU (DNA:RNA)
RNA: GGGAGACCGGAAUUCAGAUUGUCCGUACUAUUUAAAUCCCGUCGUAGCCACCA
DNA 1: CAATCTGAATTCCGGTCTCCC
DNA 2: TGGTGGCTACGACGGGATT
B15: UCCUCCG (DNA:RNA)
RNA: B1 RNA with A25U, A26C, A28U, U30C
DNA 1: CAATCTGAATTCCGGTCTCCC
DNA 2: TGGTGGCTACGACGGGATT
B16: CCUGUAA (DNA:RNA)
RNA: B14 RNA with G25C, U26C, A27U, C28G, U31A
DNA 1: CAATCTGAATTCCGGTCTCCC
DNA 2: TGGTGGCTACGACGGGATT
B17: CUGCUAU (DNA:RNA)
RNA: B14 RNA with G25C, A27G
DNA 1: CAATCTGAATTCCGGTCTCCC
DNA 2: TGGTGGCTACGACGGGATT
B18: CCCGGAU (DNA:RNA)
RNA: B14 RNA with G25C, U26C, A27C, C28G, U29G
DNA 1: CAATCTGAATTCCGGTCTCCC
DNA 2: TGGTGGCTACGACGGGATT
B19: UGGGGUG (DNA:RNA)
RNA: B1 RNA with A25U, A26G, C27G, A28G, C29G
DNA 1: CAATCTGAATTCCGGTCTCCC
DNA 2: TGGTGGCTACGACGGGATT
B20: AUUCGUU (DNA:RNA)
RNA: B14 RNA with G25A, A27U, U29G, A30U
DNA 1: CAATCTGAATTCCGGTCTCCC
DNA 2: TGGTGGCTACGACGGGATT
B21: UGCUAAC (DNA:RNA)
RNA: B1 RNA with A25U, A26G, A28U, C29A, U30A, G31C
DNA 1: CAATCTGAATTCCGGTCTCCC
DNA 2: TGGTGGCTACGACGGGATT
B22: GUUCAGU (DNA:RNA)
RNA: B14 RNA with A27U, U29A, A30G
DNA 1: CAATCTGAATTCCGGTCTCCC
DNA 2: TGGTGGCTACGACGGGATT
B23: GGUACUG (DNA:RNA)
RNA: B1 RNA with A25G, A26G, C27U
DNA 1: CAATCTGAATTCCGGTCTCCC
DNA 2: TGGTGGCTACGACGGGATT
B24: GUGCCAU (DNA:RNA)
RNA: B14 RNA with A27G, U29C
DNA 1: CAATCTGAATTCCGGTCTCCC
DNA 2: TGGTGGCTACGACGGGATT
B25: CCACGAC (DNA:RNA)
RNA: B14 RNA with G25C, U26C, U29G, U31C
DNA 1: CAATCTGAATTCCGGTCTCCC
DNA 2: TGGTGGCTACGACGGGATT
B26: CCAUACC (DNA:RNA)
RNA: B14 RNA with G25C, U26C, C28U, U29A, A30C, U31C
DNA 1: CAATCTGAATTCCGGTCTCCC
DNA 2: TGGTGGCTACGACGGGATT
B27: AGUACAC (DNA:RNA)
RNA: B1 RNA with A26G, C27U, U30A, G31C
DNA 1: CAATCTGAATTCCGGTCTCCC
DNA 2: TGGTGGCTACGACGGGATT
B28: ACCCAGA (DNA:RNA)
RNA: B1 RNA with A26C, A28C, C29A, U30G, G31A
DNA 1: CAATCTGAATTCCGGTCTCCC
DNA 2: TGGTGGCTACGACGGGATT
B29: GACCGUC (DNA:RNA)
RNA: B1 RNA with A25G, A28C, C29G, G31C
DNA 1: CAATCTGAATTCCGGTCTCCC
DNA 2: TGGTGGCTACGACGGGATT
B30: GGGCCAG (DNA:RNA)
RNA: B14 RNA with U26G, A27G, U29C, U31G
DNA 1: CAATCTGAATTCCGGTCTCCC
DNA 2: TGGTGGCTACGACGGGATT
B31: ACGAUAG (DNA:RNA)
RNA: B1 RNA with A26C, C27G, C29U, U30A
DNA 1: CAATCTGAATTCCGGTCTCCC
DNA 2: TGGTGGCTACGACGGGATT

In this assay the target is T1, RBFOX1 RRM (Homo sapiens, UniProt Q9NWB1 109-208).
T1 sequence: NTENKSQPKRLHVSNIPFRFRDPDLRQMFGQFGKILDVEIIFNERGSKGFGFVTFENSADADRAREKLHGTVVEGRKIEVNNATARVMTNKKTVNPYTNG
Briefly: EMSA; HiTS-Eq, 1 nM pool, 10 min; buffer printed only for the single-RNA assays: 10 mM Tris pH 7.5, 150 mM NaCl, 3.4 mM EDTA, 0.001% NP-40, 30 C. To be noted: tags: His6 N-terminal (pET28a); label: 5' 32P. In outline: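 Relative association constants, normalised to the cognate motif, were derived by comparing read counts of each RNA species with those of the control reaction. The RNA sequenced was the free fraction, separated by 8% native PAGE after a 10 min equilibration in 50 µL of 1 nM 5′-radiolabelled RNA (7 randomized nucleotides) with increasing concentrations of purified wild-type or mutant RbFox RRM.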
Background: A gel shift assay detects complexes by their altered migration in electrophoresis.
Regarding B1, the binding signal was 0.00435 KA relative to UGCAUGU. As for B2, the figure is 0.0123 KA relative to UGCAUGU; as for B3, 0.00131 KA relative to UGCAUGU.

Consider B4, for which the binding signal is 0.015 KA relative to UGCAUGU. With B5 the figure was 0.00802 KA relative to UGCAUGU; with B6, 0.0295 KA relative to UGCAUGU. Regarding B7, the binding signal was 0.00139 KA relative to UGCAUGU. With B8 the figure was 0.044 KA relative to UGCAUGU; with B9, 0.00242 KA relative to UGCAUGU; with B10, 0.00384 KA relative to UGCAUGU. With B11 the figure was 0.0205 KA relative to UGCAUGU; with B12, 0.00865 KA relative to UGCAUGU; with B13, 0.00515 KA relative to UGCAUGU. With B14 the figure was 0.00435 KA relative to UGCAUGU. Turning to B15, the binding signal was 0.00878 KA relative to UGCAUGU. As for B16, the figure is 0.00808 KA relative to UGCAUGU. For the molecule B17, the binding signal was 0.0132 KA relative to UGCAUGU. With B18 the figure was 0.00413 KA relative to UGCAUGU; with B19, 0.0422 KA relative to UGCAUGU; with B20, 0.00879 KA relative to UGCAUGU.

In the case of B21, the binding signal is 0.0162 KA relative to UGCAUGU. With B22 the figure was 0.0151 KA relative to UGCAUGU; with B23, 0.011 KA relative to UGCAUGU; with B24, 0.0111 KA relative to UGCAUGU.

B25: the binding signal was 0.00242 KA relative to UGCAUGU. With B26 the figure was 0.00116 KA relative to UGCAUGU; with B27, 0.00536 KA relative to UGCAUGU. With B28 the figure was 0.00381 KA relative to UGCAUGU; with B29, 0.0131 KA relative to UGCAUGU. As for B30, the binding signal is 0.0199 KA relative to UGCAUGU. With B31 the figure was 0.0135 KA relative to UGCAUGU.
